Laboratory results reported in PMC4336329 (PLoS ONE, 2015).
About 2,200 (0.71%) of roughly 310,000 compounds showed an effect of 50% or more. Effects have a minus sign here. Some of the results follow.

target: human ether-à-go-go-related gene (hERG) potassium channel (human, UniProt Q12809); assay: primary screen, population patch clamp on CHO cells stably expressing hERG
Sequence (Q12809 whole entry, looked up): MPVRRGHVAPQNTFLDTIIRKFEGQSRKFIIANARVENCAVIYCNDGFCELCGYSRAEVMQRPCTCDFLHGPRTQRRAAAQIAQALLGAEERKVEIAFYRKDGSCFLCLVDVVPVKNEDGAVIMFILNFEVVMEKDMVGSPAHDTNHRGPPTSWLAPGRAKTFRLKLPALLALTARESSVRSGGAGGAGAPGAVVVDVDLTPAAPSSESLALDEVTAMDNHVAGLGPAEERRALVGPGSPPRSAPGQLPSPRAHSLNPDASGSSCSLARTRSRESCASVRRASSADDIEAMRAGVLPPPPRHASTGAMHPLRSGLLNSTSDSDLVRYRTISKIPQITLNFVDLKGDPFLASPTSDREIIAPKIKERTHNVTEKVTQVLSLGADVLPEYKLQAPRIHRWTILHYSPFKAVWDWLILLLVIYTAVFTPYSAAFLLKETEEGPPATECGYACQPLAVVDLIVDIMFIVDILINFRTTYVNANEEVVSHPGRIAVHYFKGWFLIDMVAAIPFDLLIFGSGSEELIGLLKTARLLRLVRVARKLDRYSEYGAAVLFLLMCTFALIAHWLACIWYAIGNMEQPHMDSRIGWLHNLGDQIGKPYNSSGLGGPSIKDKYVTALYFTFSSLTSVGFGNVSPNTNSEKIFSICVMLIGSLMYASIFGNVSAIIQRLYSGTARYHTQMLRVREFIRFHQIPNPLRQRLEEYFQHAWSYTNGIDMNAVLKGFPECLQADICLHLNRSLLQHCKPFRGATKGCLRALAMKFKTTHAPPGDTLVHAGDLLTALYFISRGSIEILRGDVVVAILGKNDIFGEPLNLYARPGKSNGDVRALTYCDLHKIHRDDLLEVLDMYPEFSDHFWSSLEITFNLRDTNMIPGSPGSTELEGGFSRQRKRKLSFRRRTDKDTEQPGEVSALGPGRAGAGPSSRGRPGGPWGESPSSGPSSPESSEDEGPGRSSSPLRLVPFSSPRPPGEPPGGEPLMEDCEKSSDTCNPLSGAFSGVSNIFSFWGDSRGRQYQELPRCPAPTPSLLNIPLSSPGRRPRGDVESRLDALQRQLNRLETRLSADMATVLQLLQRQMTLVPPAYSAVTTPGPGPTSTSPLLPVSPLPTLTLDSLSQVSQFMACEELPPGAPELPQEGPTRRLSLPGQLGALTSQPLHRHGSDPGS

In order of falling “hERG current change (%, negative = inhibition) at 1uM” value:
1. Cc1c(C(=O)O)cccc1-n1c(C)cc(/C=C(/C#N)C(=O)NCc2ccccc2)c1C  24.1%
2. Cc1c(CC(=O)O)c(=O)oc2c(C)c3occ(-c4ccccc4)c3cc12  19.9%
3. O=c1[nH]c2ccc(S(=O)(=O)Nc3ccccc3O)cc2[nH]1  19.1%
4. CC(=O)c1ccc(N2CCCCC2)c(F)c1  18.2%
5. COc1cc(OC)cc(-c2c(-c3ccsc3)c3cc(Br)ccc3n2C)c1  16.5%
6. Cc1c(C=C2C(=O)N(C)C(=O)N(C)C2=O)c(=O)n(-c2ccccc2)n1C  16.3%
7. Cc1cc(F)ccc1NS(=O)(=O)c1c(C(=O)N2CCOCC2)c(C)n(C)c1C  15.2%
8. CC(=O)N/C(=C\c1ccccc1)C(=O)N1CCOCC1  15.1%
9. O=C(NC1CCCCC1)C(c1ccc(F)cc1)N(CCN1CCOCC1)C(=O)c1ccc(-c2ccccc2)[nH]1 (stereo not drawn)  15%
10. CC(C)(O)C#Cc1ccc(C(=O)NC(CCCNC(N)=O)C(=O)O)s1 (stereo not drawn)  14.7%
11. CS(=O)(=O)N(CCC#N)Cc1ccc(C=O)o1  14.6%
12. O=C(NCc1ccccc1)C1CCCN(S(=O)(=O)c2ccc(Br)cc2)C1 (stereo not drawn)  14.3%
13. O=C(N/N=C(\Cc1ncc[nH]1)c1ccccc1)c1ccccc1  14.2%
14. Cc1ccc(NC(=O)CC2NCCN(Cc3ccccc3)C2=O)cc1 (stereo not drawn)  14.1%
15. c1ccc2sc(SCSc3nc4ccccc4s3)nc2c1  14.1%
16. O=C(NCCc1ccc(Cl)cc1)C1CCN(c2ncccn2)CC1  13.9%
17. COC(=O)c1cnc2ccccc2n1  13.8%
18. CCOc1ccc(/C(CC)=N/NC(=O)C2(C)CC2(Br)Br)cc1 (stereo not drawn)  13.8%
19. CS(=O)(=O)NN1C(=O)c2ccccc2NC12CCCC2  13.7%
20. Cc1cccc(N(C)S(=O)(=O)c2ccc(-c3cnc(C4CC4)o3)cc2)c1  13.5%
21. O=C(CSc1nnc(NC(=O)c2c(F)cccc2Cl)s1)Nc1ccccc1F  13.3%
22. O=C(Nc1ccnn1C1CCN(Cc2cc(Cl)ccc2O)CC1)c1cccnc1  13.1%
23. COC(=O)COc1ccc(S(=O)(=O)N2CCOCC2)cc1  13.1%
24. O=C(Nc1ccccc1C(=O)NCCCN1CCOCC1)c1ccccc1  13%
25. COc1cccc(NC(=O)CNC(=O)[C@@H]2Cc3ccccc3CN2C(=O)OC(C)(C)C)c1  12.8%
26. CCc1cc2c(=O)c(-c3ccc4c(c3)OCCO4)c(C)oc2cc1OS(C)(=O)=O  12.8%
27. O=C(COc1ccc2cc(Br)ccc2c1Br)N1CCOCC1  12.6%
28. COc1cccc(NC(=O)c2ccccc2Oc2ccccc2)c1  12.6%
29. CC12C=CC(=O)C=C1CCC1C3CCC(O)(C(=O)CO)C3(C)CC3OC312 (stereo not drawn)  12.3%
30. C/C(=C(\C#N)C(=O)NCCCN1CCOCC1)N(C)C  12.2%
31. COc1cc(-c2nc(-c3ccncc3)no2)cc(OC)c1OC  12.2%
32. c1csc(-c2ncc3ccccn23)c1  12.1%
33. COc1ccc(Cl)cc1NS(=O)(=O)c1c(C)nc2sccn2c1=O  11.5%
34. COc1ccc(S(=O)(=O)NNc2nc(C)cc(C)n2)cc1Br  11.3%
35. CCOC(=O)C1CCN(C(=O)Cc2c(F)cccc2Cl)CC1  11.3%
36. CCOC(=O)c1cc(-c2ccc(C)cc2)n(CC(=O)NCc2ccco2)c1C  11.3%
37. COc1ccc(C(=O)Nc2ccccc2SCc2cc(=O)n3nc(C)sc3n2)cc1OC  11.3%
38. NNC(=O)c1oc2nc(-c3ccccc3)cc(-c3ccccc3)c2c1N  11.1%
39. CC(C)N(C(C)C)S(=O)(=O)c1ccc(NC(=O)c2cnccn2)cc1  10.9%
40. CN(C)c1ccc(CNCC2CCCO2)cc1.Cl (stereo not drawn)  10.8%
41. Cc1cc(C)cc(OCC(=O)NNC(=O)c2cc3ccccc3o2)c1  10.5%
42. Cc1ccc(CC2C(=O)N(c3ccccc3)C(=O)C2C)cc1 (stereo not drawn)  10.2%
43. CC1CCCCN1CCCNc1ccc(C(CC(N)=O)NC(=O)Cc2ccc(Br)cc2)cc1[N+](=O)[O-] (stereo not drawn)  9.55%
44. Cc1c(-c2nc(N)nc(Nc3ccc(F)cc3)n2)oc2ccccc12  9.46%
45. Cc1cccc(C)c1OCC(O)CNC(C)C.Cl (stereo not drawn)  9.46%
46. COc1cc(OC)cc(C(=O)Nc2cc(NC(=O)c3ccco3)ccc2OC)c1  9.13%
47. CN(c1ccccc1C(=O)N1CCc2ccccc2C1)S(C)(=O)=O  8.89%
48. NS(=O)(=O)c1ccc(CNC(=O)c2cccc(S(=O)(=O)N3CCc4ccccc43)c2)cc1  8.83%
49. CCc1ccc(C(=O)C(C)OC(=O)Cn2[nH]c(=O)c3ccccc3c2=O)cc1 (stereo not drawn)  8.79%
50. O=C(NCN1CCCCC1)c1cccnc1  8.57%
51. O=C(Cc1cc(=O)[nH][nH]1)N/N=C/C=C/c1ccccc1  7.68%
52. O=C(COC(=O)CCC(=O)c1cccs1)NC1CCCCC1  7.5%
53. Cc1ccc(SCC(=O)Nc2cccc(C)c2)cc1  7.49%
54. O=C(c1ccc2c(c1)CCN2S(=O)(=O)c1ccccc1)N1CCN(c2ccc(F)cc2)CC1  6.83%
55. CCCC(=O)Nc1cccc(NC(=O)c2ccc([N+](=O)[O-])cc2Cl)c1  6.75%
56. O=C(NC1(C(F)(F)F)NC(=O)N(Cc2ccco2)C1=O)c1cccnc1 (stereo not drawn)  6.28%
57. CC(C)CN1CCN(Cc2ccc(F)cc2Cl)CC1CCO (stereo not drawn)  5.92%
58. COc1ccccc1NC(=O)Nc1nnc(CC(=O)Nc2cccc(C)c2)s1  5.74%
59. COc1ccc(C2C(C(=O)N3CCC4(CC3)OCCO4)CC(=O)N2c2ccc(OC)cc2)cc1 (stereo not drawn)  5.17%
60. Cc1cc(OCc2cc(C(=O)NCC3(C)COC3)no2)cc(C)c1Cl  4.9%
61. O=C(COC(=O)c1cc(S(=O)(=O)N2CCOCC2)c(Cl)cc1Cl)c1ccc[nH]1  4.82%
62. COc1ccc(C(=O)OCC(=O)NC(=O)NC2CCCC2)cc1OC  4.72%
63. COc1ccc(C(=O)NN(c2ccccc2)c2ccccc2)cc1  3.89%
64. CCN(c1ccccc1)S(=O)(=O)c1cc(NC(=O)Nc2ccccc2C#N)ccc1Cl  3.54%
65. COc1cc(-c2nc3ccccn3c2/N=C/c2cc(OC)c(O)cc2Cl)ccc1O  3.29%
66. CC(C)(C)c1ccc(OCC(=O)NCC(c2cccs2)N2CCOCC2)cc1 (stereo not drawn)  2.85%
67. CCC(=O)N1CCN(c2cc(N3CCN(C)CC3)c(F)cc2[N+](=O)[O-])CC1  2.64%
68. CCC(C)(C)n1nnnc1C(C(C)C)N(Cc1ccco1)Cc1cc2cc3c(cc2[nH]c1=O)OCO3 (stereo not drawn)  2.53%
69. C[C@@H]1CN(C2CCC(C#N)(c3ccc(F)cc3)CC2)CC[C@]1(C(=O)O)c1ccccc1.Cl (stereo partly drawn)  2.33%
70. CCCNC(=O)CCn1nc(-c2ccc(Cl)cc2)c2ccccc2c1=O  1.68%
71. CCOc1ccc(-c2nc(N)ncc2-c2ccccc2OC)c(O)c1  1.66%
72. CC(C)(O)C#Cc1ccc(C(=O)N2CCC(CCC(=O)NC3CC3)CC2)cc1  1.5%
73. O=C(CSc1ccc(-c2ccc(F)cc2)nn1)Nc1ccc2c(c1)OCCO2  1.47%
74. Cc1ccc(S(=O)(=O)N2CCC(C(=O)OCC(=O)N(CCC#N)c3ccc(F)cc3)CC2)cc1C  0.922%
75. Cc1ccc(N2C(=O)C3ON(c4ccccc4)C(c4ccncc4)C3C2=O)c(C)c1 (stereo not drawn)  0.87%
76. COc1ccc(Br)cc1CNC(=O)c1ccc2c(c1)N(C)CCS2  0.856%
77. Cl.O=[N+]([O-])c1cc(Cl)cc(C2=NCCN2)c1  0.328%
78. COc1cc(Cl)ccc1NC(=S)N(CCN(C)C)C(C)c1ccncc1 (stereo not drawn)  0.055%
79. COC(=O)c1ccccc1NC(=O)C12CC3CC(C1)CC(n1cnc(Cl)n1)(C3)C2  -0.0768%
80. O=C1C=C(c2ccc3[nH]ccc3c2)C[C@@H](c2ccc(Cl)cc2)C1  -0.759%
81. Cc1ccc(CNC(=O)C2CC(c3cccc([N+](=O)[O-])c3)=NO2)o1 (stereo not drawn)  -1.58%
82. CCOC(=O)C1CCCN(c2c(NCCCN(C)Cc3ccccc3)c(=O)c2=O)C1 (stereo not drawn)  -3.52%
83. CCN(Cc1ccc(OC)c(COC)c1)CC1CCCN(CCc2cccc(F)c2)C1 (stereo not drawn)  -4.29%
84. CN(c1ccccc1C(=O)Nc1ccc(S(=O)(=O)N2CCOCC2)cc1)S(C)(=O)=O  -6.46%
85. CC(Oc1ccc(F)cc1)C(=O)Nc1cc(C(F)(F)F)ccc1-n1cncn1 (stereo not drawn)  -8.26%
86. Cl.O=[N+]([O-])c1ccc(N2CCNCC2)cc1N1CCCCCC1  -11.7%
87. CCOC(=O)C(CC)Sc1nc2c(c(=O)[nH]c(=O)n2C)n1C/C=C(/C)Cl (stereo not drawn)  -56.9%
